According to PubChem BioAssay AID1508624 (National Center for Advancing Translational Sciences (NCATS), 2021):
Screen size: about 48,000 compounds; about 120 (0.25%) were called active. Another 4% or so got no clear call; they are omitted. The call rests on the fitted dose curve; in most records, active means well fitted activation curve with a large enough effect; inconclusive means small, poorly fitted or top-dose-only effect, or another doubt; inactive means no such curve, though single readings can be large or run the other way. The list shows a part of the results.

Assay: Primary qHTS for Identification of Small Molecule Activators of Huntingtin-Antisense Promoter Activity; further: nearly all actives have a fitted effect of over 55% in size
Conditions: HEK293 HTT-AS promoter firefly luciferase reporter (activity 0% = vehicle and -100% = no light), 24 h; series mostly up to 57.5 µM; activity change, positive = activation: at the top concentration
Outline: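 Firefly luciferase signal from promoter-reporter HEK293 cells was scaled between vehicle (0%) and zero RLU (-100%). Compounds were tested at final concentrations of up to 57.5 uM over 24 h at 37 degrees C. PTC124 at 50 uM final served as control inhibitor.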

Activity change, positive = activation, inactive:
CN1[C@@H]2CC[C@H]1CC(OC(=O)C(O)c1ccccc1)C2 (stereo partly drawn) -4.01%, Cc1cc(C)cc(S(=O)(=O)c2cn(C)c3cc(N4CCCC4)c(F)cc3c2=O)c1 -16.3%, CCc1ccc(NC(=O)CSC2=Nc3ccccc3C3=NC(CCC(=O)NCc4ccco4)C(=O)N23)cc1 (stereo not drawn) -1.84%, CCc1ccccc1NC(=O)N(C)CCc1c(C)nn(C)c1C -6.57%, Cc1ccc(-c2nc3sc(CCNC(=O)c4ccc(C)c(C)c4)c(C)n3n2)cc1 6.93%, O=C(CCS(=O)(=O)c1cccs1)Nc1ccc(C(=O)Nc2ccccc2F)cc1 1.99%, CCSc1ncc(Cl)c(C(=O)Nc2ccc(S(=O)(=O)N3CCCCC3)cc2)n1 -20.3%, Cc1ccc(C)c(Cn2cc(S(=O)(=O)c3ccc(Cl)cc3)c(=O)c3cc(F)ccc32)c1 4.56%, CCN(Cc1ccccc1)C(=O)CN(c1ccc(OC)cc1)S(=O)(=O)c1c(C)nn(C)c1C -10.3%, CCCCN(CCCC)CCNC(=O)c1cn(CC)c2ccc(S(=O)(=O)N(C)C3CCCCC3)cc2c1=O -2.39%, COc1ccc(Cl)cc1NS(=O)(=O)c1ccc2c(c1)NC(=O)CC(=O)N2 -2.21%, CCOc1ccc(NC(=O)Cn2c(=O)n(-c3cccc(OC)c3)c(=O)c3c4c(sc32)CCCC4)cc1 -4%, COC(=O)N[C@H](C(=O)N1CCC[C@@H]1c1ncc(-c2ccc(-c3ccc(-c4cnc([C@@H]5CCCN5C(=O)[C@@H](NC(=O)OC)C(C)C)[nH]4)cc3)cc2)[nH]1)C(C)C -17.3%, Cc1ccc(-c2c(C)n3c4c(=O)n(C)c(=O)n(C)c4nc3n2CCO)cc1 -42.7%, CC(=O)N1CCc2c(sc3c2c(=O)n(CCc2ccccc2)c(=O)n3Cc2ccc(Cl)cc2)C1 -35.5%, Cc1cc2c(cc1S(=O)(=O)N1CCCCC1)OCC(=O)N2 -21.4%, Cc1ccccc1NC(=O)CSc1nc2c(c(=O)n(C)c(=O)n2C)n1Cc1ccccc1F 3.81%, COCCNC(=O)Cn1c(=O)n(CCCCCC(=O)NCc2ccc3c(c2)OCO3)c(=O)c2sccc21 -13.4%, CCOC(=O)C1CCCN(C(=O)c2cc3c(=O)[nH]c4ccc(C)cc4c3s2)C1 (stereo not drawn) -17.4%, CN(Cc1ccccc1)S(=O)(=O)c1cc(Br)cc2c1N(C(=O)C1CC1)CC2 -26.6%, CCN(CCCNC(=O)CN1N=C(c2ccc(OC)cc2)CCC1=O)c1cccc(C)c1 -39.2%, CCCCN(C)CCCNC(=O)c1cc(-c2ccc(Br)s2)nc2ccccc12 -19.6%, Cc1cccc(NC(=O)CCCCCn2c(=O)[nH]c3ccsc3c2=O)c1 -17.9%, CCOc1ccc(CCNC(=O)CCCn2nc(C)c3sc4ccccc4c3c2=O)cc1 -10.3%, COc1cccc(Nc2sc(C(=O)c3ccc(F)cc3)c(N)c2C(=O)NCc2ccc(Cl)cc2)c1 -15.5%, Cc1cccc(N2CCN(C(=O)c3cn(CC(C)C)c(=O)c4c3c3ccccc3n4C)CC2)c1C -32.9%, COc1cc2nccc(Oc3ccc(NC(=O)NC4CC4)c(Cl)c3)c2cc1C(N)=O -22.4%, COc1cccc(N2CC(NC(=O)CCCc3ccccc3)CC2=O)c1 (stereo not drawn) -5.77%, Cc1ccc(NS(=O)(=O)c2c(C)[nH]c(=O)[nH]c2=O)c(C)c1 -6.7%, COc1ccc(-c2ccc(NS(=O)(=O)c3ccc(C(C)=O)cc3)cc2)nn1 -23.6%, Cc1ccc(-c2noc(CNC(=O)c3ccc(Br)o3)n2)cc1 -20.4%, COc1ccc(NC(=O)CC2C(=O)N(c3cccc(C)c3)C(=O)N2C2CCCCC2)cc1 (stereo not drawn) -0.106%, CC(=O)c1cccc(NC(=O)c2cc(-c3ccc(Cl)s3)nc3ccccc23)c1 -18.9%, COc1ccc(-c2nnc(SCC(=O)Nc3ccc(C(C)C)cc3)nc2-c2ccc(OC)c(OC)c2)cc1OC -23.6%, CCC(C)(Oc1ccc(C2(c3ccc(OC(C)(CC)C(=O)O)cc3)CCCCC2)cc1)C(=O)O (stereo not drawn) 6.27%, CC(C)c1ccc(S(=O)(=O)c2nnn3c2nc(N2CCCCC2)c2sccc23)cc1 -8.56%, COc1cccc(C(=O)Nc2ccc(-c3cc(C(F)(F)F)nn3-c3ccccc3)cc2)c1 -50.2%, Cc1ccc(C)c(CN2C(=O)N(c3cc(Cl)ccc3C)S(=O)(=O)c3ccccc32)c1 -17.4%, Cc1ccc(C)c(Cn2c(-c3cccs3)nc3ccccc32)c1 -41.3%, CCOc1ccccc1CNS(=O)(=O)c1ccc2[nH]c(=O)ccc2c1 -21%, CC(C)Cc1ccc(S(=O)(=O)Nc2cc3c(cc2N2CCOCC2)n(C)c(=O)c(=O)n3C)cc1 -19.3%, CCc1nn(CC(=O)NCCCN(CC(C)C)CC(C)C)c(=O)c2cc3sc(C)cc3n12 -1.41%, COc1ccccc1N1CCN(C(=O)Cn2cnc3onc(-c4ccc(F)cc4)c3c2=O)CC1 -18.6%, O=C(c1ccc2c(=O)n(CCc3ccccc3)c(=O)[nH]c2c1)N1CCN(c2ccc(F)cc2)CC1 -45.6%, Cc1nn(-c2ccccc2)c2c1N(CC(=O)N1CCN(c3cccc(Cl)c3)CC1)C(=O)CS2 -6.56%, COc1ccc(Cn2c(=O)c3oc4ccccc4c3n(Cc3cccc(C(F)(F)F)c3)c2=O)cc1 -30.8%, COc1cccc(N2CC(NC(=O)c3ccco3)CC2=O)c1 (stereo not drawn) -11.8%, CCCCCCOc1ccc(C2C(=O)N(C3CCCCC3)CC(=O)N2CCC)cc1 (stereo not drawn) -25.2%, CCOc1ccccc1CNC(=O)C1CCN(c2nn3cc(-c4ccc(F)cc4)nc3s2)CC1 7.44%, Cc1cccc(N2CCN(C(=O)c3cccc(-n4c(C)nc5cccnc54)c3)CC2)c1C -31.6%, CC(C)c1ccc(CN(Cc2ccco2)c2cnc(S(C)(=O)=O)nc2C(=O)Nc2ccc(F)cc2)cc1 -20.8%, Cc1ccc(C(=O)Nc2cc3nn(-c4ccccc4)nc3cc2Cl)c(C)c1 -3.33%, CCOc1ccccc1N(CC(=O)NCCSc1ccccc1)S(=O)(=O)c1ccccc1 -31.7%, N#C/C(=C\c1ccc(Cl)cc1Cl)c1nc(-c2cccc(Cl)c2)cs1 0.66%, COc1ccccc1Cc1nc2ccccc2nc1SCC(=O)N(C)c1ccc(F)cc1 -15.3%, Cc1nnc(N2CCC(C(=O)NCCc3ccccc3Cl)CC2)c2nn(-c3ccccc3)c(C)c12 -36.6%, Cc1cccc(N2CCN(C(=O)Nc3cn(CC(C)C)c(=O)c4ccccc34)CC2)c1C -9.59%, Cc1ccc(-c2noc(C(C)NS(=O)(=O)c3ccc(C)cc3)n2)cc1 (stereo not drawn) 1.53%
